Assay results: article PMC4336329 (PLoS ONE, 2015)
About 14,000 (4.5%) of roughly 310,000 compounds showed an effect of 50% or more. Effects have a minus sign here. Some of the results follow.

target: human ether-à-go-go-related gene (hERG) potassium channel (human, UniProt Q12809); assay: primary screen, population patch clamp on CHO cells stably expressing hERG
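Also: peak tail current of the secondary pulse compared with the same well before compound.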

Chain of human ether-à-go-go-related gene (hERG) potassium channel (Q12809 whole entry, looked up): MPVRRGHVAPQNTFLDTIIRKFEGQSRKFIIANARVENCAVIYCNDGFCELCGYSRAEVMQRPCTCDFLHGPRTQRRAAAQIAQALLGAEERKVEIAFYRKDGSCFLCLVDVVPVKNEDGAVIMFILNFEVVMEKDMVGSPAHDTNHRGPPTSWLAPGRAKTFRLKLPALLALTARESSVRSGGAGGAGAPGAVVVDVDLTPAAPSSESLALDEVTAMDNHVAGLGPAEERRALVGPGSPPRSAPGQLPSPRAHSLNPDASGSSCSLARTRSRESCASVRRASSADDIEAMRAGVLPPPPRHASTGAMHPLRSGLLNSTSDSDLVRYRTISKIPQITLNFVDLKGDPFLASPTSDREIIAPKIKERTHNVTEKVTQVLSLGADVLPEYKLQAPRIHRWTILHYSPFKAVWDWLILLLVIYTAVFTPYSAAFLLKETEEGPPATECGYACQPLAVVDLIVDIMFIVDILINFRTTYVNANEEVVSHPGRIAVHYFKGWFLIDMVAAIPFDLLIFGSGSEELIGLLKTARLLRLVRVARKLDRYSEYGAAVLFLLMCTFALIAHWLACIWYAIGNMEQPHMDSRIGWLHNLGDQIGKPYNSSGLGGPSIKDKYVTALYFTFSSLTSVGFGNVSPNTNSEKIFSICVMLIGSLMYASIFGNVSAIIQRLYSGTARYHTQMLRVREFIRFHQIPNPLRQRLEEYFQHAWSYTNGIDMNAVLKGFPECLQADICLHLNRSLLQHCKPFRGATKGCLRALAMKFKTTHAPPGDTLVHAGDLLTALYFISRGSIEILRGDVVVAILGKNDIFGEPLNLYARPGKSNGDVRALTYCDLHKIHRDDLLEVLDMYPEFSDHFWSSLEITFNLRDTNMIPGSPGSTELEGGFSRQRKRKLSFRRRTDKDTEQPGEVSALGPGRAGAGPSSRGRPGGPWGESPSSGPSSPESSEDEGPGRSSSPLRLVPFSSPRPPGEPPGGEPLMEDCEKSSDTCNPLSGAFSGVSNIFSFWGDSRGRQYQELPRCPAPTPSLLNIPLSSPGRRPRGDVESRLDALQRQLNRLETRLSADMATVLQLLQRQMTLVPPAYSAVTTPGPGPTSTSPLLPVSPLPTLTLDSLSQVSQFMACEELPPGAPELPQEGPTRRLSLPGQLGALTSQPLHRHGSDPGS

SMILES	hERG current change (%, negative = inhibition) at 10uM
O=C(CC(=O)N/N=C/c1ccc(F)cc1)N/N=C/c1ccc(F)cc1	20.8%
C=CCNC(=O)NC(=O)CN1C(=O)NC(c2ccccc2)(c2ccccc2)C1=O	-69.5%
COC(=O)c1c(NC(=O)C(C)C)sc2c1C(C(=O)OC)CC2 (stereo not shown)	11.8%
COc1ccc(N2CC(C(=O)N[C@H](C(=O)NC3CCCC3)C(C)C)CC2=O)cc1 (stereo partly shown)	25.1%
COc1ccc(/C=C/CN2CCC(n3nccc3NC(=O)C3CCCC3)CC2)cc1	-88.6%
O=c1[nH]cc(C(F)(F)F)cc1NS(=O)(=O)c1ccc([N+](=O)[O-])cc1	-7.67%
CCOc1ccccc1N1CC(C(=O)N2CCOCC2)CC1=O (stereo not shown)	13.9%
CC(NC(=O)CCn1c(=S)[nH]c2ccsc2c1=O)c1ccccc1 (stereo not shown)	9.87%
Cc1cccc(NC(=O)/C(C#N)=C/c2ccc(Sc3ccccc3)o2)c1C	8.77%
CCNC(=O)N1CCCC(C(=O)c2ccc3cc(OC)ccc3c2)C1 (stereo not shown)	-22.5%
C=CCOc1cccc(/C=N/NC(=O)CN(c2cc(Cl)ccc2OC)S(=O)(=O)c2ccc(C)c([N+](=O)[O-])c2)c1	9.82%
Cc1ccc(Nc2cc(=O)[nH]c(=O)[nH]2)cc1C	6.01%
N#C/C(=C\c1cn(CCOc2ccccc2)c2ccccc12)C(=O)NCc1ccco1	-1.02%
CCn1nnc(NC(=O)c2c(OC)cccc2OC)n1	7.73%
CSC1=NCCN1C(=O)c1ccc(S(=O)(=O)N2CCCCC2)cc1	5.3%
Cn1c(=O)[nH]c(=O)c2c1nc(N1CCCCCC1)n2CCOc1ccccc1	-5.49%
COc1cc2ccccc2cc1C(=O)N1CCCCC1	-0.827%
Cc1cc(=O)cc(C)n1-c1ccc(F)cc1F	0.384%
c1ccc(C(c2ccccc2)N2CCN(C(c3ccccn3)c3nnnn3C3CCCC3)CC2)cc1 (stereo not shown)	15.5%
CCCCSc1n[nH]c(N)n1	14%
CCOC(=O)C1C(=O)C=C(N2CCOCC2)CC1c1cccc(OC)c1 (stereo not shown)	7.18%
CCOc1ccc(C(CCc2ccccc2)NC(=O)c2ccccc2F)cc1OCC (stereo not shown)	11.1%

SMILES	hERG current change (%, negative = inhibition) at 10uM
CN(Cc1cnn(C)c1)C(=O)c1cc(COc2c(F)cccc2F)on1	7.79%
CCOC(=S)SCC(=O)Nc1nc(C)c(C)s1	2.61%
Cc1ccc(-c2cc(C(F)(F)F)c(C#N)c(SCCC#N)n2)o1	4.81%
CC(=O)Oc1cccc(NC(=O)c2ccc3c(c2)C(=O)N(CC(C)C)C3=O)c1	11.2%
COc1ccc(Nc2nc(N)nc(CSC(=S)N3CCOCC3)n2)cc1	-7.13%
Cc1ccc(/C=C2\SC(=S)N(CCCC(=O)Nc3ccc(O)cc3)C2=O)cc1	3%
CC1(C)CC(=O)C(C=NCCc2ccc(O)cc2)=C(O)C1	8.99%
CCCCCNC(=O)c1cccc(S(=O)(=O)N2CC3(C)CC2CC(C)(C)C3)c1 (stereo not shown)	-1.24%
OCCCNc1ncnc2c1[nH]c1ccccc12	13.2%
O=C(Cc1ccc(Cl)cc1)Nc1ccc(N2CCCC2)cc1	17.3%
CCOc1ccc(N=C2SCCCN2C(=O)c2c(CC)noc2C)cc1	-9.74%
Cc1cc(=O)oc2cc(OCC(=O)N3CC[C@@]4(O)CCCC[C@H]4C3)ccc12	8.66%
Cc1ccc(/C=N/NC(=O)C2COc3ccccc3O2)s1 (stereo not shown)	-2.82%
Cc1cc(-c2nnc(CCC(=O)NCC(C)c3ccccc3)o2)no1 (stereo not shown)	11.1%
CC(=O)c1c(C)[nH]c(C(=O)OCC(=O)NCCC(C)C)c1C	3.45%
CCN(CC)S(=O)(=O)c1ccc(-c2nnc(SCC(=O)N3c4ccccc4CC3C)o2)cc1 (stereo not shown)	-6.82%
Cc1oc(S(=O)(=O)N2CCCCC2)cc1NC(=O)Nc1ccc(Cl)cc1	13.5%
COc1ccc(NC(=O)CCN2C(=O)/C(=C/c3ccc4c(c3)OCO4)SC2=S)cc1	9.71%
COc1ccccc1C(=O)Nc1ccnn1C1CCN(C(=O)c2cnsn2)CC1	-62.2%
O=C(CSCc1ccc(F)cc1)Nc1nc2c(s1)CCCC2	-12.6%
COc1ccc(N(C)C(=O)CCS(=O)(=O)c2cccc3nonc23)c(OC)c1	1.11%
CCOC(=O)c1c(NC(=S)NC(=O)c2ccco2)sc2c1CCCC2	21.5%

SMILES	hERG current change (%, negative = inhibition) at 10uM
CCC(=O)Nc1ccc2c(c1)C(=O)N(C)C2=O	12.2%
CCCNC(=O)NC(=O)COC(=O)c1ccc(OC)c(S(=O)(=O)N2CCCc3ccccc32)c1	-4.08%
C[C@]12CCC(O)CC1=CCC1C2CC[C@]2(C)/C(=N\NC(N)=S)CCC12 (stereo partly shown)	-24.1%
O=C(NCc1ccc(F)cc1)Nc1ccccc1	19.2%
CCCCCCCN1C(N(C)C)=NC[C@@H]1Cc1ccccc1	-80.1%
Cc1cccc(N(C(=O)c2snc(C(N)=O)c2N)C(C(=O)NCC2CCCO2)c2cccs2)c1 (stereo not shown)	-16.3%
Cc1ccc(OCC(O)CN2CCN(CC(O)COc3ccc(C)cc3Cl)CC2)c(Cl)c1 (stereo not shown)	-24.3%
c1ccc(-c2csc3ncnc(-n4cnc5ccccc54)c23)cc1	-19.5%
CCOCCc1nnc(NC(=O)CS(=O)(=O)Cc2ccccc2)s1	21.2%
COc1ccc(CN2CCN(C(=O)c3ccco3)CC2)cc1	-12.3%
Cc1c(Br)c(C(=O)N2CCc3ccccc32)nn1C	4.61%
Cc1ccc(CN2CCC(C(=O)NCCC(C)C)CC2)o1.O=C(O)C(=O)O	4.86%
COc1ccc(N=Cc2c(O)n(-c3ccc(C)cc3)c(=O)[nH]c2=O)cc1	4.33%
COc1ccc(-n2cc(-c3ccccc3)[nH]c2=S)cc1	8.53%
CC1CCC(C(C)C)C(OCC(O)CNC(C)(C)C)C1.Cl (stereo not shown)	-18.5%
COc1ccc2nc(/C(C#N)=C\c3ccc(C(=O)O)cc3)[nH]c2c1	36.6%
CSc1cccc(-n2cc(-c3ccc4c(c3)OCO4)[nH]c2=O)c1	0.191%
O=C(NCc1cccs1)C1CC(c2ccc(Cl)c(Cl)c2)=NO1 (stereo not shown)	27.6%
CCCCn1c(N)c(N(CCOC)C(=O)C2CCCN(C(=O)c3ccc(Cl)cc3)C2)c(=O)[nH]c1=O (stereo not shown)	-5.18%
Cc1ccc(NC(=O)CN(C)C(=O)c2ccc(-n3cncn3)c([N+](=O)[O-])c2)cc1	-49.2%
O=C(CC1CCCCC1)N1CCCC(c2nc(-c3ccc(S(=O)(=O)N4CCCC4)cc3)no2)C1 (stereo not shown)	-8.43%
COc1ccccc1CC(=O)NC1CCCCCC1	10.9%

SMILES	hERG current change (%, negative = inhibition) at 10uM
CCOc1ncccc1C(=O)N(CC)CC(=O)NCc1ccc(Cl)cc1	1.69%
O=C(O)CSCc1cnn(-c2ccccc2)c1-n1cccc1	-5.58%
O=C(COC(=O)Cc1n[nH]c(=O)c2ccccc12)Nc1c(Cl)cccc1C(F)(F)F	12.2%
Cc1ccc(NC(=O)CCN2C(=O)c3ccccc3S2(=O)=O)cc1C	-18%
O=C(O)c1ccc(N/N=C/C=C/c2ccccc2)cc1	15.7%
CCCCCC(=O)Nc1cccc(C2=NOC3(C2)C[C@H](C(N)=O)N(C(=O)COc2ccc(Cl)cc2)C3)c1 (stereo partly shown)	-22%
COC(=O)CCCC1=CC2=CC(=O)C(C)(OC(=O)c3cccs3)C(=O)C2=CN1c1ccccc1 (stereo not shown)	-5.86%
CSC1=NCCN1C(=O)c1cccc(C(F)(F)F)c1	6.83%
COc1cccc(NC(=O)CCCCCn2nnc3ccccc3c2=O)c1	-5.76%
Cc1ccc(C(=O)N2CCC3(CC2)Oc2ccc(F)cc2C(=O)C32CC(c3cccnc3)=NO2)s1 (stereo not shown)	-2.48%
CN(C)CCN1C(=O)NC(C)(c2ccc([N+](=O)[O-])cc2)C1=O (stereo not shown)	-11.3%
CCN(/C=N/c1sc2c(c1C#N)CCCCC2)CC	5.56%
COC(=O)c1ccccc1NC(=O)NN1CCN(C)CC1	-14.5%
Cc1ccccc1OCC(=O)OCC(=O)NCC1CCCO1 (stereo not shown)	20.6%
Nc1cccc(-c2nnc3n2CCCCC3)c1	1.48%
CC(CC(=O)Nc1ccc(S(=O)(=O)Nc2ncccn2)cc1)c1ccccc1 (stereo not shown)	6.78%
N#C/C(=C(/O)COC(=O)Cc1c[nH]c2ccccc12)c1nc2ccccc2[nH]1	14.2%
Cc1sc(NC(=O)c2c(F)cccc2F)nc1-c1ccccc1	11.9%
CC(C(=O)NC(C)(C)C)N1C(=O)c2cccc3cccc(c23)C1=O (stereo not shown)	9.11%
O=C1C(CCCNC(=S)NCc2ccccc2)NC(=S)N1Cc1ccccc1 (stereo not shown)	2.97%
COc1cnc(SCc2ccc(Cl)cc2)nc1Cl	12.5%
CCOC(=O)C1=C(C)N2C(=C(C#N)[C@@H]1c1ccc(C(=O)OC)cc1)SC[C@@]2(O)C(C)(C)C	6.91%
